# Test results published in the supplement of paper PMC8728848.
# This is one part of the list.
# B1: FliC (Pseudomonas aeruginosa), P72151 (protein)
# chain: MALTVNTNIASLNTQRNLNASSNDLNTSLQRLTTGYRINSAKDDAAGLQISNRLSNQISGLNVATRNANDGISLAQTAEGALQQSTNILQRIRDLALQSANGSNSDADRAALQKEVAAQQAELTRISDTTTFGGRKLLDGSFGTTSFQVGSNAYETIDISLQNASASAIGSYQVGSNGAGTVASVAGTATASGIASGTVNLVGGGQVKNIAIAAGDSAKAIAEKMDGAIPNLSARARTVFTADVSGVTGGSLNFDVTVGSNTVSLAGVTSTQDLADQLNSNSSKLGITASINDKGVLTITSATGENVKFGAQTGTATAGQVAVKVQGSDGKFEAAAKNVVAAGTAATTTIVTGYVQLNSPTAYSVSGTGTQASQVFGNASAAQKSSVASVDISTADGAQNAIAVVDNALAAIDAQRADLGAVQNRFKNTIDNLTNISENATNARSRIKDTDFAAETAALSKNQVLQQAGTAILAQANQLPQAVLSLLR
# Experiments:
# Assay in all cases: glycan array binding signal (z-score within array); higher = stronger binding
# Conditions in all cases: glycan notation: IUPAC condensed, linker removed
# [1] = target: Gal(a1-3)Gal(b1-4)GlcNAc(b1-2)Man
# How it was run: (§1)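 Arrays were curated from the Consortium for Functional Glycomics database, 3228 in total, and kept only where the protein sequence was available. Binding is expressed as a within-array Z-score. This score was averaged across arrays of the same protein sequence at different concentrations or buffers and across linkers, and negative values can be read as non-binding.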
# [2] = target: Gal(a1-3)Gal(b1-4)GlcNAc(b1-2)Man(a1-3)[Gal(a1-3)Gal(b1-4)GlcNAc(b1-2)Man(a1-6)]Man(b1-4)GlcNAc(b1-4)GlcNAc
# How it was run: as §1
# [3] = target: Gal(a1-3)Gal(b1-4)GlcNAc(b1-3)GalNAc
# How it was run: as §1
# [4] = target: Gal(a1-3)Gal(b1-4)GlcNAc(b1-6)GalNAc
# How it was run: as §1
# [5] = target: Gal(a1-3)Gal(b1-4)[Fuc(a1-3)]GlcNAc
# How it was run: as §1
# [6] = target: Gal(a1-3)Gal(b1-4)[Fuc(a1-3)]GlcNAc(b1-2)Man(a1-3)[Gal(a1-3)Gal(b1-4)[Fuc(a1-3)]GlcNAc(b1-2)Man(a1-6)]Man(b1-4)GlcNAc(b1-4)GlcNAc
# How it was run: as §1
# Gal(a1-3)GalNAc = target: Gal(a1-3)GalNAc
# How it was run: as §1
# [7] = target: Gal(a1-3)[Gal(a1-4)]Gal(b1-4)GlcNAc
# How it was run: as §1
# [8] = target: Gal(a1-4)Gal(b1-3)GlcNAc(b1-2)Man(a1-3)[Gal(a1-4)Gal(b1-3)GlcNAc(b1-2)Man(a1-6)]Man(b1-4)GlcNAc(b1-4)GlcNAc
# How it was run: as §1
# Gal(a1-4)Gal(b1-4)Glc = target: Gal(a1-4)Gal(b1-4)Glc
# How it was run: as §1
# Gal(a1-4)Gal(b1-4)GlcNAc = target: Gal(a1-4)Gal(b1-4)GlcNAc
# How it was run: as §1
# [9] = target: Gal(a1-4)Gal(b1-4)GlcNAc(b1-2)Man(a1-3)[Gal(a1-4)Gal(b1-4)GlcNAc(b1-2)Man(a1-6)]Man(b1-4)GlcNAc(b1-4)GlcNAc
# How it was run: as §1
# [10] = target: Gal(a1-4)Gal(b1-4)GlcNAc(b1-3)Gal(b1-4)Glc
# How it was run: as §1
# Gal(a1-4)GlcNAc = target: Gal(a1-4)GlcNAc
# How it was run: as §1
# Gal(a1-6)Glc = target: Gal(a1-6)Glc
# How it was run: as §1
# Gal(b1-2)Gal = target: Gal(b1-2)Gal
# How it was run: as §1
# Gal(b1-3)Gal = target: Gal(b1-3)Gal
# How it was run: as §1
# Gal(b1-3)Gal(b1-4)GlcNAc = target: Gal(b1-3)Gal(b1-4)GlcNAc
# How it was run: as §1
# Gal(b1-3)GalNAc = target: Gal(b1-3)GalNAc
# How it was run: as §1
# [11] = target: Gal(b1-3)GalNAc(a1-3)[Fuc(a1-2)]Gal(b1-4)Glc
# How it was run: as §1
# [12] = target: Gal(b1-3)GalNAc(a1-3)[Fuc(a1-2)]Gal(b1-4)GlcNAc
# How it was run: as §1
# Gal(b1-3)GalNAc(b1-3)Gal = target: Gal(b1-3)GalNAc(b1-3)Gal
# How it was run: as §1
# [13] = target: Gal(b1-3)GalNAc(b1-3)Gal(a1-4)Gal(b1-4)Glc
# How it was run: as §1
# [14] = target: Gal(b1-3)GalNAc(b1-4)Gal(b1-4)Glc
# How it was run: as §1
# [15] = target: Gal(b1-3)GalNAc(b1-4)[Neu5Ac(a2-3)]Gal(b1-4)Glc
# How it was run: as §1
# Gal(b1-3)GlcNAc = target: Gal(b1-3)GlcNAc
# How it was run: as §1
# [16] = target: Gal(b1-3)GlcNAc(a1-3)Gal(b1-4)GlcNAc
# How it was run: as §1
# [17] = target: Gal(b1-3)GlcNAc(a1-6)Gal(b1-4)GlcNAc
# How it was run: as §1
# Gal(b1-3)GlcNAc(b1-2)Man = target: Gal(b1-3)GlcNAc(b1-2)Man
# How it was run: as §1
# [18] = target: Gal(b1-3)GlcNAc(b1-2)Man(a1-3)[Gal(b1-3)GlcNAc(b1-2)Man(a1-6)]Man(b1-4)GlcNAc(b1-4)GlcNAc
# How it was run: as §1
# [19] = target: Gal(b1-3)GlcNAc(b1-2)Man(a1-3)[Gal(b1-3)GlcNAc(b1-2)Man(a1-6)]Man(b1-4)GlcNAc(b1-4)[Fuc(a1-6)]GlcNAc
# How it was run: as §1
# [20] = target: Gal(b1-3)GlcNAc(b1-2)Man(a1-3)[GlcNAc(b1-4)][Gal(b1-3)GlcNAc(b1-2)Man(a1-6)]Man(b1-4)GlcNAc(b1-4)GlcNAc
# How it was run: as §1
# [21] = target: Gal(b1-3)GlcNAc(b1-2)[Gal(b1-3)GlcNAc(b1-6)]Man(a1-6)[Gal(b1-3)GlcNAc(b1-2)Man(a1-3)]Man(b1-4)GlcNAc(b1-4)GlcNAc
# How it was run: as §1
# [22] = target: Gal(b1-3)GlcNAc(b1-3)Gal(b1-3)GlcNAc
# How it was run: as §1
# [23] = target: Gal(b1-3)GlcNAc(b1-3)Gal(b1-4)Glc
# How it was run: as §1
# [24] = target: Gal(b1-3)GlcNAc(b1-3)Gal(b1-4)GlcNAc
# How it was run: as §1
# [25] = target: Gal(b1-3)GlcNAc(b1-3)Gal(b1-4)GlcNAc(b1-2)Man(a1-3)[Gal(b1-3)GlcNAc(b1-3)Gal(b1-4)GlcNAc(b1-2)Man(a1-6)]Man(b1-4)GlcNAc(b1-4)GlcNAc
# How it was run: as §1
binder,measurement,setting,value
B1,glycan array binding signal (z-score),[1],-0.035
same,glycan array binding signal (z-score),[2],-0.178
same,glycan array binding signal (z-score),[3],-0.202
same,glycan array binding signal (z-score),[4],0.774
same,glycan array binding signal (z-score),[5],0.903
same,glycan array binding signal (z-score),[6],-0.136
same,glycan array binding signal (z-score),Gal(a1-3)GalNAc,0.02
same,glycan array binding signal (z-score),[7],-0.061
same,glycan array binding signal (z-score),[8],-0.081
same,glycan array binding signal (z-score),Gal(a1-4)Gal(b1-4)Glc,-0.183
same,glycan array binding signal (z-score),Gal(a1-4)Gal(b1-4)GlcNAc,0.061
same,glycan array binding signal (z-score),[9],-0.165
same,glycan array binding signal (z-score),[10],-0.119
same,glycan array binding signal (z-score),Gal(a1-4)GlcNAc,1.07
same,glycan array binding signal (z-score),Gal(a1-6)Glc,-0.258
same,glycan array binding signal (z-score),Gal(b1-2)Gal,0.927
same,glycan array binding signal (z-score),Gal(b1-3)Gal,-0.208
same,glycan array binding signal (z-score),Gal(b1-3)Gal(b1-4)GlcNAc,-0.198
same,glycan array binding signal (z-score),Gal(b1-3)GalNAc,0.004
same,glycan array binding signal (z-score),[11],-0.091
same,glycan array binding signal (z-score),[12],-0.136
same,glycan array binding signal (z-score),Gal(b1-3)GalNAc(b1-3)Gal,-0.232
same,glycan array binding signal (z-score),[13],-0.11
same,glycan array binding signal (z-score),[14],-0.162
same,glycan array binding signal (z-score),[15],0.001
same,glycan array binding signal (z-score),Gal(b1-3)GlcNAc,-0.179
same,glycan array binding signal (z-score),[16],-0.119
same,glycan array binding signal (z-score),[17],-0.215
same,glycan array binding signal (z-score),Gal(b1-3)GlcNAc(b1-2)Man,-0.213
same,glycan array binding signal (z-score),[18],-0.121
same,glycan array binding signal (z-score),[19],-0.117
same,glycan array binding signal (z-score),[20],-0.213
same,glycan array binding signal (z-score),[21],-0.192
same,glycan array binding signal (z-score),[22],-0.235
same,glycan array binding signal (z-score),[23],-0.203
same,glycan array binding signal (z-score),[24],-0.2
same,glycan array binding signal (z-score),[25],-0.073
